The supplement of paper PMC11417369
This is one part of the list.

The sequences below were run on PfAP2-HC AP2 domain (GST-tagged) (assay: gcPBM binding intensity (ln(normalized median fluorescence intensity)); higher = stronger DNA binding).
Outline: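 Binding intensity is the highest Masliner-normalised natural-log median intensity over replicate spots in either probe orientation. To obtain it, GST-tagged P. falciparum DNA-binding domains made in E. coli were incubated for 1 h on an Agilent 4 × 180k array of primer-extended double-stranded 36-bp intergenic genomic probes plus negative controls. Detection used Alexa488 anti-GST antibody with scanning at 488 nm.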

| Sequence | gcPBM binding intensity (ln) |
| --- | --- |
| AGTAACTAATTAAATGCATGTCGATATATATTATAT [TGCATGCA_site1038] | 9.73 |
| GATACACCAAATAACTGTACGCACGTGTAATATTAA [XGTACX_site3441] | 9.99 |
| ACTTATATAAAACATTAACACACAAAGAAAAAAAAT [CACACA_site8529] | 9.94 |
| TTAACCGGTTTATGGGTGCACATTCTTCTTAAATAA [GTGCAC_site9928] | 9.51 |
| CCTAGAAAAGTATATACACACGCGCAAAATAAAATT [CACACA_site1413] | 9.83 |
| AAAAAAAAGTTAAGCACACACATGAATAAATAATAC [CACACA_site840] | 10.2 |
| TGTATAAAAGTTTATACACACATTTGATATATTTCA [CACACA_site6606] | 9.66 |
| TTTTTTTGTTGTTGTTGTACGATATTTTCCTTATCA [XGTACX_site2375] | 10 |
| TATAAAAAAAACAAAAAAAAAAAAAAACAAAAAAAA [TGCATGCA_negctrl_site514] | 9.5 |
| GGGAATATAAGTACACGATAATATGTGATAAGGTCT [CACACA_negctrl_site1502] | 9.86 |
| TTTTATTTTTATTATACACACGCTTAATAAATGCAT [CACACA_site1751] | 9.78 |
| GGGGGGATGAGATATTGTACTTTTTAGGAAAGTGTA [XGTACX_site2835] | 9.67 |
| CATTTAACATAAATTAAACACACAATATAATACATT [CACACA_site8333] | 9.73 |
| AAAGATAAAATATTATGTACATATATATATATATAT [XGTACX_site5079] | 9.65 |
| AATAATAATACTAATCGTACGCATATTTTTCAAACC [XGTACX_site8055] | 9.7 |
| ATTAAATACATTAACACACACACAAATATATACATA [CACACA_site2881] | 10.7 |
| AATAATATATTTAGGGGTACATAATAATATATTTTA [XGTACX_site8366] | 9.59 |
| AAAAATAGAATAAATACACACCCGTGTAACGGATTT [CACACA_site3372] | 9.81 |
| TTTATAAAAATGAACACACACATATAAATATAAATA [CACACA_site7607] | 10.3 |
| TTTTAAATATGAACATGTACATGTAAATTTACATGT [XGTACX_site4573] | 9.51 |
| TATTTTTATAAGTAAAAGGAGCACAGTTAAAGGATC [XGTACX_negctrl_site362] | 9.7 |
| TTTTAATTTATTAATTGTACATGTATTTTAAGATTA [XGTACX_site8417] | 9.52 |

| Sequence | gcPBM binding intensity (ln) |
| --- | --- |
| TTATTATTAAAAAAAAGTACAGAATTGAATAATACA [XGTACX_site651] | 9.61 |
| TAAACATTTGGCTGATGTACTTGCTACCTTAAATCA [XGTACX_site5514] | 9.45 |
| ATTTTTGTGTATTAATGTACTTTATGCATATTTGAC [XGTACX_site3353] | 9.9 |
| TTGGTCTTTTAAAAAAGTACAAAAAAAAAAAAAAAA [XGTACX_site1665] | 9 |
| TATAAATAAAGATATACACACATATAAATATTTTTC [CACACA_site7798] | 9.94 |
| ATTTTTTTTTTTATAGTGGATCCACATTTGCCATTT [CACACA_negctrl_site1106] | 9.68 |
| TTACGATCATCAATATGTACATATATATATATATAT [XGTACX_site4301] | 9.75 |
| TATAAAAAAATATTATAATATATATATATATATATA [XGTACX_negctrl_site41] | 9.45 |
| AATATTTATATTTACACACACATAATACATCTATGT [CACACA_site4187] | 10.4 |
| GATAAATTAAGACACACACACATATATTTATTTATA [CACACA_site7789] | 11.2 |
| AAAAAAGAACGCATAGTGCATATCTAAAAGATTTTT | 9.64 |
| TAGTATTAGATATATACACACATATATACCTATAGA [CACACA_site7083] | 9.86 |
| AAATAAAGGAAATAAAAAGAAACCAATTTCGAATAT [CACACA_negctrl_site953] | 9.63 |
| GATATAATTATGTGTACACAATTTTTTTTTTTTTTT [CACACA_site4501] | 9.68 |
| ATATGTATGTATAATCGTACAAAATTTGGCGATCTT [XGTACX_site8698] | 9.68 |
| TTTTTTTTAAAACTATGTACGTAAAAATTGTAGTTT [XGTACX_site2302] | 9.51 |
| TTTATATGTATTAATTGTACACATATAATGTGTTTT [XGTACX_site3064] | 9.83 |
| ATATAGTAAATTGGTAGTACATAAAATGATTTTATG [XGTACX_site4143] | 9.65 |
| AGAACTTTTAATGGATGTACAGTTATTTTATTATTT [XGTACX_site6226] | 9.86 |
| AACAGATAAAAGGGTACACACATATATACAAGTACA [CACACA_site7959] | 10.2 |
| TTATGTAGCTAGCTATAAACTTTTTTTTATTTAAAA [CACACA_negctrl_site1297] | 9.35 |
| TATATAGATATGATAGTGCATTTTTAGAAAACATAA [GTGCAC_site9962] | 9.59 |

| Sequence | gcPBM binding intensity (ln) |
| --- | --- |
| ATATATATATATATATGTACATACTATACAATAATT [XGTACX_site3546] | 9.97 |
| ATTATTATTAAATACACACACATACCTCCATGTTAG [CACACA_site3430] | 10.1 |
| TTGTTATTATATTACGCATGCATCATTTATTTGCAC [TGCATGCA_site525] | 9.74 |
| AAAGGGAATTATGGCTGTACGCATTTTATAAATAGC [XGTACX_site5878] | 9.68 |
| TGCTGTATATTTTTCTGTACACATTTATATATTCCA [XGTACX_site6244] | 9.99 |
| AAGAATAAGAAGAAGGATCCCCTTCAAAAAAAAAAA [TGCATGCA_negctrl_site525] | 9.37 |
| AAAAAAAAAACATACACACATACATACATATATATT [CACACA_site949] | 10.2 |
| ATGAAGAATTTATATTGTACCCATTTTTATGTAAAT [XGTACX_site2528] | 9.61 |
| CGAAAAAGTGATATAGTGCAAAATTTTCATTTCTCT | 9.71 |
| AATATTTTTGTCGTTAGTACATAAAAAATAATAATA [XGTACX_site3074] | 9.56 |
| ATAATTTTATCATATATATATATATATAAATACTTA [CACACA_negctrl_site743] | 9.56 |
| ATGCTTTTATGCACACGTACAAAAATATTATATAAT [XGTACX_site5589] | 9.68 |
| AATAATAAAGTGAACACACACATATAATATATATAT [CACACA_site4143] | 10.2 |
| ATAATTAAAATGCTCACACACATAAAAAAAAATTAA [CACACA_site2149] | 9.94 |
| ATCCCCATAAAAAATACACACAAATATTTATACATA [CACACA_site1001] | 10 |
| ATAGAATCTGGTAGCTGTACGAGTCGTAGAGTGTAG [XGTACX_site2016] | 9.74 |
| ATATATTAAAAGGATTAGGAAAAAATATGATTTATC [TGCATGCA_negctrl_site405] | 9.52 |
| AAGTAAAAAAAAAAAAGTACATGTTTATATAAATAT [XGTACX_site4741] | 9.63 |
| ATACATATATATAATACACACATAAATGTAACATTT [CACACA_site3518] | 9.96 |
| ATAAATTAACATTAAAGTACATTTTAATAAATATTA [XGTACX_site3647] | 9.35 |
| GATCAAAATTATAGAAGTACTTTATATAAATAAAAT [XGTACX_site8161] | 9.6 |
| TATATATATAAGATTGTGCACATTAAAATGATAGAA [GTGCAC_site9621] | 10.1 |

| Sequence | gcPBM binding intensity (ln) |
| --- | --- |
| TCATAAATACATTTTGCATGTAAAATATAGAATACA [TGCATGCA_site755] | 9.65 |
| TCTATAAAATATAAAAGTACGTATCAATAATTAAAA [XGTACX_site8469] | 9.65 |
| ATTACGATAGAGAAATGTACATATATATATGTAAGT [XGTACX_site1200] | 9.84 |
| TATTTTATAAATTAATGTACATAAATTATATCTACT [XGTACX_site3625] | 9.54 |
| TGATAAGAAAAAGACTTTTCCTTCTTACTTTCTATG [CACACA_negctrl_site782] | 9.48 |
| AATAATGTTTTTATATCACACACAAATATTAAATGA [CACACA_site8074] | 9.93 |
| CAAAATAAATAATTTGGTACACATAAAAAAAAAAAA [XGTACX_site8380] | 9.77 |
| CCATAAAACTATAATACACACATATAGATTAACATA [CACACA_site7849] | 10.1 |
| AAAATTGGTGAAAATGAAAATATGATTATATGTATA [XGTACX_negctrl_site505] | 9.67 |
| GTATATAGTATGTAGAGTACTAATTTCCATATGTTC [XGTACX_site7816] | 9.68 |
| ATTTATATATAGGTGTGTCCACAAATAGTATGTAAA [XGTACX_site2916] | 9.88 |
| AATTAATATATAAATAATAAAAAAAAATATATAAAC [XGTACX_negctrl_site280] | 9.62 |
| GAACGAAATAAGTGTGTGCACATGTAACCACAAATC [GTGCAC_site9829] | 10.4 |
| CAATATTTTCATAGATGTACTTTGGACTTATTATAT [XGTACX_site4849] | 9.6 |
| TAAATAAAAGATACGAGTACGTATGATGTTAACCTC [XGTACX_site8840] | 9.99 |
| CTTATTTAATGTATCACACACGAGAATAAAAAATAA [CACACA_site3020] | 9.79 |
| TATAAGTTGATATATACACACATATATAAATATGTA [CACACA_site7526] | 9.77 |
| TATTTATAAAAATATACACACATACAAATATGCATA [CACACA_site4555] | 9.82 |
| ATGGTTTTCAGAAAAACATGCATACAATAATAAAAA [TGCATGCA_site815] | 9.59 |
| TTTAAAATAACCAAAAACAAAAAGAAACACAAATGT [GTGCAC_negctrl_site705] | 9.78 |
| GATCAAATAGAAAATACATGCAATGTGTGAAATAAC [TGCATGCA_site835] | 9.86 |
| TTTCAAATGGAATGTGTGCACATAAATGTAAATAAA | 10.1 |
